{"sequences": {"note": "Sequences of proteins named here, by UniProt entry; tags and fusion partners are left off. A change or cut given only in a name is not applied to a line headed by its entry. A line that says so, or that is headed by a name, gives the form on record, which may keep a tag or linker. Residues count along the entry.", "UniProt Q14258": "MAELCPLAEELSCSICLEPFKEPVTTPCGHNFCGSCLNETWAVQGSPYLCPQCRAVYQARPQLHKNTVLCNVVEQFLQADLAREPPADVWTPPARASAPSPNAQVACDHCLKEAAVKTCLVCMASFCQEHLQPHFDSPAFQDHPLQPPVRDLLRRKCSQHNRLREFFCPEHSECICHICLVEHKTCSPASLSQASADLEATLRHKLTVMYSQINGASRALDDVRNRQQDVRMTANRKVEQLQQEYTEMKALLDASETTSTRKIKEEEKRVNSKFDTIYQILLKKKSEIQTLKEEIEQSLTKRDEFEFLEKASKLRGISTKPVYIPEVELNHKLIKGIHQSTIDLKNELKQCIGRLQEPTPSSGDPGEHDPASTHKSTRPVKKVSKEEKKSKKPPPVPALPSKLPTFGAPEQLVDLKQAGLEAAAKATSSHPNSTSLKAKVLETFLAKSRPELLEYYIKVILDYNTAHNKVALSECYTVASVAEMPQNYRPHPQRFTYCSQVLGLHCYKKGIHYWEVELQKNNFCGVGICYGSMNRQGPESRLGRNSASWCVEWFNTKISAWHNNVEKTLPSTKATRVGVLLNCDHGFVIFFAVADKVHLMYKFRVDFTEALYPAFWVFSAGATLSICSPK", "UniProt Q14671": "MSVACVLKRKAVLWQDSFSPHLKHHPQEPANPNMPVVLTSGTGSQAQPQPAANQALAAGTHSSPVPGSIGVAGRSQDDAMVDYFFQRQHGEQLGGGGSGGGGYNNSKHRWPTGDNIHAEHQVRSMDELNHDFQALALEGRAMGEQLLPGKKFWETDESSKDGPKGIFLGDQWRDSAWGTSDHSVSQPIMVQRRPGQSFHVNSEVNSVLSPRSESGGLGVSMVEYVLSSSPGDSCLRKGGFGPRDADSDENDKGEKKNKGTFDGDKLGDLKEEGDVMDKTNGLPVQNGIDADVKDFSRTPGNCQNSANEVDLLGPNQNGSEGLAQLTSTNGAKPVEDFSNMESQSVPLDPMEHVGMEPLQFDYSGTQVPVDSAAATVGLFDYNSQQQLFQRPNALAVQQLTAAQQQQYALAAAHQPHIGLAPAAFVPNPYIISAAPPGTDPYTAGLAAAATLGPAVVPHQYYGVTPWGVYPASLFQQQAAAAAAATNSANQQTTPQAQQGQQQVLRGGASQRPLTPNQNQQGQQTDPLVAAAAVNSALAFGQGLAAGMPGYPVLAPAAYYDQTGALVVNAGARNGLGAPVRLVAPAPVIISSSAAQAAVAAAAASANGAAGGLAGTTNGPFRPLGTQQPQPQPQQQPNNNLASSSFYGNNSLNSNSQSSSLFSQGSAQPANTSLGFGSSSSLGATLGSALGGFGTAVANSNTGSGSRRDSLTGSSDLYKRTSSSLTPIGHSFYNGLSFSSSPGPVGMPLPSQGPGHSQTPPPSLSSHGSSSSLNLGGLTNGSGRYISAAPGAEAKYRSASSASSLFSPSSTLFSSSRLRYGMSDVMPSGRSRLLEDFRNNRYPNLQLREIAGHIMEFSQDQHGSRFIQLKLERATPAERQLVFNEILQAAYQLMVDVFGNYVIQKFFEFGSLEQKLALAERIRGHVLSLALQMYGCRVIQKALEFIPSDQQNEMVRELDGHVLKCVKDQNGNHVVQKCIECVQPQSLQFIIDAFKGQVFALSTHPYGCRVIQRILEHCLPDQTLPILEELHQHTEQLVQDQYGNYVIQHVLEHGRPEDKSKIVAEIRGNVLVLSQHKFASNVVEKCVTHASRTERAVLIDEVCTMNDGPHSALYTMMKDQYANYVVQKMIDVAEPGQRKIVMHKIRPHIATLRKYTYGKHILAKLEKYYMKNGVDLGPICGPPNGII", "Flag-tagged PUM1dN (PUM-HD of PUM1)": "residues 828-1168 of Q14671", "Flag-tagged PUM2 (full-length) (Q8TB72-3, form named)": "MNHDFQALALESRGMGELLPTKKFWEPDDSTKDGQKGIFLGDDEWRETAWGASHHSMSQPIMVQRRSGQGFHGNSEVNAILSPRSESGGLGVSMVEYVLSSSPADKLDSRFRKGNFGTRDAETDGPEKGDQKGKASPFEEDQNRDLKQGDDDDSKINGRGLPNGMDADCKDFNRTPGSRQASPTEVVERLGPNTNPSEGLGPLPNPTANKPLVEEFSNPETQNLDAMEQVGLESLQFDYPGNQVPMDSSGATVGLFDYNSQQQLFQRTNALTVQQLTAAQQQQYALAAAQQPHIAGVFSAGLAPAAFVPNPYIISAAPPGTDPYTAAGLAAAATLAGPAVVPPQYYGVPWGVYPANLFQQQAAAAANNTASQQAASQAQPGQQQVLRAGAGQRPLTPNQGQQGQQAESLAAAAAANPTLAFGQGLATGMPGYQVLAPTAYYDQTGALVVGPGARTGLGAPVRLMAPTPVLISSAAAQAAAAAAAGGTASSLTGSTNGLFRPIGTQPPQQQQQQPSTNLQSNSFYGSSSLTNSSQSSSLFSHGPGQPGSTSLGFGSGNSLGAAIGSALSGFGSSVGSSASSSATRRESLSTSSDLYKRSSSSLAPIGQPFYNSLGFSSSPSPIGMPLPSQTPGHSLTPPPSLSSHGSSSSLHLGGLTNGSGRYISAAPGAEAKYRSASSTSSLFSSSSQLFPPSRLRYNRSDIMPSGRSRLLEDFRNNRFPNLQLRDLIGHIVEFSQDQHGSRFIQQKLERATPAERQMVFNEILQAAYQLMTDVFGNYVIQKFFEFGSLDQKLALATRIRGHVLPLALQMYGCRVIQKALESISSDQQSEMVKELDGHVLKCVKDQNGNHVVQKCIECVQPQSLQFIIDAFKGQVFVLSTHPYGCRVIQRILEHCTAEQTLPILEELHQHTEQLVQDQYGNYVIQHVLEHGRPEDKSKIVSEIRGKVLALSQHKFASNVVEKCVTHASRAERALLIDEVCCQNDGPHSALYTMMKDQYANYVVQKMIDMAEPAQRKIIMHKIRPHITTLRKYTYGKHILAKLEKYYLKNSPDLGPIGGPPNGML", "PUM2H850A (Flag-tagged) (Q8TB72-3, form named)": "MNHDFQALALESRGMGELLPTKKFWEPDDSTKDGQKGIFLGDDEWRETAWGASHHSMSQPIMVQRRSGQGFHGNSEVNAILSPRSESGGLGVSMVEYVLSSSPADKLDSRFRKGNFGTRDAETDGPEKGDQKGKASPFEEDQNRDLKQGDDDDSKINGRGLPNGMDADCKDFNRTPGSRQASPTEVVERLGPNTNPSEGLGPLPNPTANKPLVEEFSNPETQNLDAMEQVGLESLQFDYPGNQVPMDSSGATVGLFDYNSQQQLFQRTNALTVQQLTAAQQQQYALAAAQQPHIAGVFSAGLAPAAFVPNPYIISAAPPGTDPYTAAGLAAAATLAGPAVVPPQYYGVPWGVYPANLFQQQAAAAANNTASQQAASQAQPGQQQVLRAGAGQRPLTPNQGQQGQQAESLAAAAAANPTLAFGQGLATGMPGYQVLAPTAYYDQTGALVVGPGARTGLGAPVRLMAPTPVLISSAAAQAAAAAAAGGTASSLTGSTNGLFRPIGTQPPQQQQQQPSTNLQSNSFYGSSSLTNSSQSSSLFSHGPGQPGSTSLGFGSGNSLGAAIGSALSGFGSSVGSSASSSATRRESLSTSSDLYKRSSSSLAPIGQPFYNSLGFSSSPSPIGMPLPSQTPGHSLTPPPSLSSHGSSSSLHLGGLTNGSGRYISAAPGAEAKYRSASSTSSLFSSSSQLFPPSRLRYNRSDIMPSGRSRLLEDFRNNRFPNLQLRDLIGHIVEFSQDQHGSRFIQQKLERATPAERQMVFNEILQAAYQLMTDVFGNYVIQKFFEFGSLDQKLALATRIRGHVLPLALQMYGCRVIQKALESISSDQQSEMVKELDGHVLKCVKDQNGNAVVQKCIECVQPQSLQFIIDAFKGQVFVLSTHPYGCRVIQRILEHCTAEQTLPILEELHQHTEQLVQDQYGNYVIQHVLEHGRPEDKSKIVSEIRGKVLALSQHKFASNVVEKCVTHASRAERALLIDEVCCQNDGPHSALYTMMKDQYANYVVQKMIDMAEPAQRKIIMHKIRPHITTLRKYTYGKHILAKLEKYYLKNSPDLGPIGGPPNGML", "UniProt Q7Z434": "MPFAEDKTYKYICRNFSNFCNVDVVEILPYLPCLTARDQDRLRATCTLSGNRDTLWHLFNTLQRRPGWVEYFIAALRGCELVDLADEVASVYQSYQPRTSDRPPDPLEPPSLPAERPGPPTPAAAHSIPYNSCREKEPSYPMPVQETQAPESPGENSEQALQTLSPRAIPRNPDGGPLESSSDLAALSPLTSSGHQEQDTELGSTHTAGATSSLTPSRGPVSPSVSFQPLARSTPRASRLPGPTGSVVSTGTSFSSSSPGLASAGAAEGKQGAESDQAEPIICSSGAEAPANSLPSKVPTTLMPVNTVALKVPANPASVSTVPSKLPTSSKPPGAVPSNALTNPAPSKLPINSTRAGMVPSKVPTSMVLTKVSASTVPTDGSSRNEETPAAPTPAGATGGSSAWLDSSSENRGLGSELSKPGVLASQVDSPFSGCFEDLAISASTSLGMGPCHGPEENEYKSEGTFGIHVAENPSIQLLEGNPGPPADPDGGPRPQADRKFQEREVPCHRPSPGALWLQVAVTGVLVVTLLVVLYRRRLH"}, "source": "paper PMC4207803", "key": {"Myc-tagged TRIM25": {"target": "Myc-tagged TRIM25 (UniProt Q14258)", "test": "co-IP; HEK293T cells co-transfected with Flag-tagged PUM1 or PUM2 and Myc-tagged TRIM25; anti-Flag or anti-c-Myc immunoprecipitation, Protein G Sepharose; Western blotting"}, "[1]": {"target": "Flag-tagged PUM1 (full-length) (human) (UniProt Q14671)", "test": "co-IP; HEK293T cells co-transfected; lysates precipitated with anti-Flag antibody and Protein G Sepharose at 4°C overnight; Western blotting (anti-HA)"}, "[2]": {"target": "Flag-tagged PUM2 (full-length) (human) (UniProt Q8TB72)", "test": "co-IP; HEK293T cells co-transfected; lysates precipitated with anti-Flag antibody and Protein G Sepharose at 4°C overnight; Western blotting (anti-HA)"}, "[3]": {"target": "PUM2H850A (Flag-tagged) (human) (UniProt Q8TB72)", "test": "co-IP; HEK293T cells co-transfected; lysates precipitated with anti-Flag antibody and Protein G Sepharose at 4°C overnight; Western blotting (anti-HA)"}, "[4]": {"target": "PUM1H972A (Flag-tagged) (human) (UniProt Q14671)", "test": "co-IP; HEK293T cells co-transfected; lysates precipitated with anti-Flag antibody and Protein G Sepharose at 4°C overnight; Western blotting (anti-HA)"}, "[5]": {"target": "Flag-tagged PUM1dN (PUM-HD of PUM1) (human) (UniProt Q14671)", "test": "co-IP; HEK293T cells co-transfected; lysates precipitated with anti-Flag antibody and Protein G Sepharose at 4°C overnight; Western blotting (anti-HA)"}, "[6]": {"target": "recombinant PUM2 produced as GST fusion (N-terminal GST, C-terminal His6) (human) (UniProt Q8TB72)", "test": "native gel or EMSA; recombinant LGP2 (0.125 µg) with 32P-labeled dsRNA (25/25c) with or without Pumilio proteins (0.1, 0.3 or 0.5 µg); 20 mM Tris-HCl pH 8.0, 1.5 mM MgCl2, 1.5 mM DTT, 37°C 15 min; 15% acrylamide gel, TBE; both purified"}, "[7]": {"target": "recombinant PUM1 produced as GST fusion (N-terminal GST, C-terminal His6) (human) (UniProt Q14671)", "test": "native gel or EMSA; recombinant LGP2 (0.125 µg) with 32P-labeled dsRNA (25/25c) with or without Pumilio proteins (0.1, 0.3 or 0.5 µg); 20 mM Tris-HCl pH 8.0, 1.5 mM MgCl2, 1.5 mM DTT, 37°C 15 min; 15% acrylamide gel, TBE; both purified"}, "[8]": {"target": "recombinant PUM2 produced as GST fusion (N-terminal GST, C-terminal His6) (human) (UniProt Q8TB72)", "test": "pull-down; GST pull-down without dsRNA: LGP2 (0.5 µg) mixed with GST-Pumilio proteins (0.5 µg) in 20 mM Tris-HCl pH 8.0, 1.5 mM MgCl2, 1.5 mM DTT, 37°C 15 min; Glutathione Sepharose 4B, room temperature 1 h; Western blotting; both purified"}, "[9]": {"target": "recombinant PUM1 produced as GST fusion (N-terminal GST, C-terminal His6) (human) (UniProt Q14671)", "test": "pull-down; GST pull-down without dsRNA: LGP2 (0.5 µg) mixed with GST-Pumilio proteins (0.5 µg) in 20 mM Tris-HCl pH 8.0, 1.5 mM MgCl2, 1.5 mM DTT, 37°C 15 min; Glutathione Sepharose 4B, room temperature 1 h; Western blotting; both purified"}, "[10]": {"target": "recombinant PUM2 produced as GST fusion (N-terminal GST, C-terminal His6) (human) (UniProt Q8TB72)", "test": "condition: only in the presence of dsRNA (25/25c, 0.4 µg); pull-down; GST pull-down in the presence of synthetic dsRNA (25/25c, 0.4 µg): LGP2 (0.5 µg) mixed with GST-Pumilio proteins (0.5 µg) in 20 mM Tris-HCl pH 8.0, 1.5 mM MgCl2, 1.5 mM DTT, 37°C 15 min; Glutathione Sepharose 4B; Western blotting; both purified"}, "[11]": {"target": "recombinant PUM1 produced as GST fusion (N-terminal GST, C-terminal His6) (human) (UniProt Q14671)", "test": "condition: only in the presence of dsRNA (25/25c, 0.4 µg); pull-down; GST pull-down in the presence of synthetic dsRNA (25/25c, 0.4 µg): LGP2 (0.5 µg) mixed with GST-Pumilio proteins (0.5 µg) in 20 mM Tris-HCl pH 8.0, 1.5 mM MgCl2, 1.5 mM DTT, 37°C 15 min; Glutathione Sepharose 4B; Western blotting; both purified"}}, "note": "No constants are given. Whether binding was seen depends on the method and setting. For some assays here: In cells and extracts the contact can be indirect. Some binding calls cover weakened binding; strength is not graded here. For some assays here: Tags and fused reporters may be left off the sequences shown.", "data": [{"molecule": "Flag-tagged PUM2 (full-length) (from UniProt Q8TB72-3 1-1064)", "values": [{"measurement": "binding", "setting": "Myc-tagged TRIM25", "value": "no binding"}]}, {"molecule": "HA-tagged PUM2 (from UniProt Q8TB72-3 1-1064)", "values": [{"measurement": "binding", "setting": "[1]", "value": "binds"}]}, {"molecule": "HA-tagged IPS-1 (from UniProt Q7Z434 1-540)", "values": [{"measurement": "binding", "setting": "[2]", "value": "no binding"}, {"measurement": "binding", "setting": "[1]", "value": "no binding"}]}, {"molecule": "Flag-tagged PUM1 (full-length) (from UniProt Q14671 1-1186)", "values": [{"measurement": "binding", "setting": "Myc-tagged TRIM25", "value": "no binding"}]}, {"molecule": "HA-tagged LGP2 full-length (protein, UniProt Q96C10 1-678) MELRSYQWEVIMPALEGKNIIIWLPTGAGKTRAAAYVAKRHLETVDGAKVVVLVNRVHLVTQHGEEFRRMLDGRWTVTTLSGDMGPRAGFGHLARCHDLLICTAELLQMALTSPEEEEHVELTVFSLIVVDECHHTHKDTVYNVIMSQYLELKLQRAQPLPQVLGLTASPGTGGASKLDGAINHVLQLCANLDTWCIMSPQNCCPQLQEHSQQPCKQYNLCHRRSQDPFGDLLKKLMDQIHDHLEMPELSRKFGTQMYEQQVVKLSEAAALAGLQEQRVYALHLRRYNDALLIHDTVRAVDALAALQDFYHREHVTKTQILCAERRLLALFDDRKNELAHLATHGPENPKLEMLEKILQRQFSSSNSPRGIIFTRTRQSAHSLLLWLQQQQGLQTVDIRAQLLIGAGNSSQSTHMTQRDQQEVIQKFQDGTLNLLVATSVAEEGLDIPHCNVVVRYGLLTNEISMVQARGRARADQSVYAFVATEGSRELKRELINEALETLMEQAVAAVQKMDQAEYQAKIRDLQQAALTKRAAQAAQRENQRQQFPVEHVQLLCINCMVAVGHGSDLRKVEGTHHVNVNPNFSNYYNVSRDPVVINKVFKDWKPGGVISCRNCGEVWGLQMIYKSVKLPVLKVRSMLLETPQGRIQAKKWSRVPFSVPDFDFLQHCAENLSDLSLD", "values": [{"measurement": "binding", "setting": "[2]", "value": "binds"}, {"measurement": "binding", "setting": "[3]", "value": "binds"}, {"measurement": "binding", "setting": "[4]", "value": "binds"}, {"measurement": "binding", "setting": "[1]", "value": "binds"}, {"measurement": "binding", "setting": "[5]", "value": "no binding"}]}, {"molecule": "recombinant Flag-tagged LGP2 (6xHis-LGP2) (protein, UniProt Q96C10 1-678) MELRSYQWEVIMPALEGKNIIIWLPTGAGKTRAAAYVAKRHLETVDGAKVVVLVNRVHLVTQHGEEFRRMLDGRWTVTTLSGDMGPRAGFGHLARCHDLLICTAELLQMALTSPEEEEHVELTVFSLIVVDECHHTHKDTVYNVIMSQYLELKLQRAQPLPQVLGLTASPGTGGASKLDGAINHVLQLCANLDTWCIMSPQNCCPQLQEHSQQPCKQYNLCHRRSQDPFGDLLKKLMDQIHDHLEMPELSRKFGTQMYEQQVVKLSEAAALAGLQEQRVYALHLRRYNDALLIHDTVRAVDALAALQDFYHREHVTKTQILCAERRLLALFDDRKNELAHLATHGPENPKLEMLEKILQRQFSSSNSPRGIIFTRTRQSAHSLLLWLQQQQGLQTVDIRAQLLIGAGNSSQSTHMTQRDQQEVIQKFQDGTLNLLVATSVAEEGLDIPHCNVVVRYGLLTNEISMVQARGRARADQSVYAFVATEGSRELKRELINEALETLMEQAVAAVQKMDQAEYQAKIRDLQQAALTKRAAQAAQRENQRQQFPVEHVQLLCINCMVAVGHGSDLRKVEGTHHVNVNPNFSNYYNVSRDPVVINKVFKDWKPGGVISCRNCGEVWGLQMIYKSVKLPVLKVRSMLLETPQGRIQAKKWSRVPFSVPDFDFLQHCAENLSDLSLD", "values": [{"measurement": "binding", "setting": "[6]", "value": "no binding (condition: LGP2 in complex with dsRNA)"}, {"measurement": "binding", "setting": "[7]", "value": "no binding (condition: LGP2 in complex with dsRNA)"}, {"measurement": "binding", "setting": "[8]", "value": "binds"}, {"measurement": "binding", "setting": "[9]", "value": "binds"}, {"measurement": "binding", "setting": "[10]", "value": "no binding"}, {"measurement": "binding", "setting": "[11]", "value": "no binding"}]}, {"molecule": "HA-tagged RIG-I (protein, UniProt O95786 1-925) MTTEQRRSLQAFQDYIRKTLDPTYILSYMAPWFREEEVQYIQAEKNNKGPMEAATLFLKFLLELQEEGWFRGFLDALDHAGYSGLYEAIESWDFKKIEKLEEYRLLLKRLQPEFKTRIIPTDIISDLSECLINQECEEILQICSTKGMMAGAEKLVECLLRSDKENWPKTLKLALEKERNKFSELWIVEKGIKDVETEDLEDKMETSDIQIFYQEDPECQNLSENSCPPSEVSDTNLYSPFKPRNYQLELALPAMKGKNTIICAPTGCGKTFVSLLICEHHLKKFPQGQKGKVVFFANQIPVYEQQKSVFSKYFERHGYRVTGISGATAENVPVEQIVENNDIIILTPQILVNNLKKGTIPSLSIFTLMIFDECHNTSKQHPYNMIMFNYLDQKLGGSSGPLPQVIGLTASVGVGDAKNTDEALDYICKLCASLDASVIATVKHNLEELEQVVYKPQKFFRKVESRISDKFKYIIAQLMRDTESLAKRICKDLENLSQIQNREFGTQKYEQWIVTVQKACMVFQMPDKDEESRICKALFLYTSHLRKYNDALIISEHARMKDALDYLKDFFSNVRAAGFDEIEQDLTQRFEEKLQELESVSRDPSNENPKLEDLCFILQEEYHLNPETITILFVKTRALVDALKNWIEGNPKLSFLKPGILTGRGKTNQNTGMTLPAQKCILDAFKASGDHNILIATSVADEGIDIAQCNLVILYEYVGNVIKMIQTRGRGRARGSKCFLLTSNAGVIEKEQINMYKEKMMNDSILRLQTWDEAVFREKILHIQTHEKFIRDSQEKPKPVPDKENKKLLCRKCKALACYTADVRVIEECHYTVLGDAFKECFVSRPHPKPKQFSSFEKRAKIFCARQNCSHDWGIHVKYKTFEIPVIKIESFVVEDIATGVQTLYSKWKDFHFEKIPFDPAEMSK", "values": [{"measurement": "binding", "setting": "[2]", "value": "no binding"}, {"measurement": "binding", "setting": "[1]", "value": "no binding"}]}, {"molecule": "HA-tagged MDA5 (protein, UniProt Q9BYX4 1-1025) MSNGYSTDENFRYLISCFRARVKMYIQVEPVLDYLTFLPAEVKEQIQRTVATSGNMQAVELLLSTLEKGVWHLGWTREFVEALRRTGSPLAARYMNPELTDLPSPSFENAHDEYLQLLNLLQPTLVDKLLVRDVLDKCMEEELLTIEDRNRIAAAENNGNESGVRELLKRIVQKENWFSAFLNVLRQTGNNELVQELTGSDCSESNAEIENLSQVDGPQVEEQLLSTTVQPNLEKEVWGMENNSSESSFADSSVVSESDTSLAEGSVSCLDESLGHNSNMGSDSGTMGSDSDEENVAARASPEPELQLRPYQMEVAQPALEGKNIIICLPTGSGKTRVAVYIAKDHLDKKKKASEPGKVIVLVNKVLLVEQLFRKEFQPFLKKWYRVIGLSGDTQLKISFPEVVKSCDIIISTAQILENSLLNLENGEDAGVQLSDFSLIIIDECHHTNKEAVYNNIMRHYLMQKLKNNRLKKENKPVIPLPQILGLTASPGVGGATKQAKAEEHILKLCANLDAFTIKTVKENLDQLKNQIQEPCKKFAIADATREDPFKEKLLEIMTRIQTYCQMSPMSDFGTQPYEQWAIQMEKKAAKEGNRKERVCAEHLRKYNEALQINDTIRMIDAYTHLETFYNEEKDKKFAVIEDDSDEGGDDEYCDGDEDEDDLKKPLKLDETDRFLMTLFFENNKMLKRLAENPEYENEKLTKLRNTIMEQYTRTEESARGIIFTKTRQSAYALSQWITENEKFAEVGVKAHHLIGAGHSSEFKPMTQNEQKEVISKFRTGKINLLIATTVAEEGLDIKECNIVIRYGLVTNEIAMVQARGRARADESTYVLVAHSGSGVIEHETVNDFREKMMYKAIHCVQNMKPEEYAHKILELQMQSIMEKKMKTKRNIAKHYKNNPSLITFLCKNCSVLACSGEDIHVIEKMHHVNMTPEFKELYIVRENKALQKKCADYQINGEIICKCGQAWGTMMVHKGLDLPCLKIRNFVVVFKNNSTKKQYKKWVELPITFPNLDYSECCLFSDED", "values": [{"measurement": "binding", "setting": "[2]", "value": "no binding"}, {"measurement": "binding", "setting": "[1]", "value": "no binding"}]}]}
